The experiment has as its target T1, CesT (purified alone) (enteropathogenic Escherichia coli (EPEC)), P21244.
T1 chain: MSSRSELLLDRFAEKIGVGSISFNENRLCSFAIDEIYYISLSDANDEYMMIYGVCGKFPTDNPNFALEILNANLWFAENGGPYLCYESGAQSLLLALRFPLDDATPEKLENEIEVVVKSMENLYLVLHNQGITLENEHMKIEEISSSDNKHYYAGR
As to the kind of experiment: SEC. Particulars: remark: other sources report otherwise.

The source of these data is PMC6114900.

A word on the stoichiometry N: it is the number of molecules, sites or subunits per partner or assembly.

B1: CesT (purified alone), P21244 1-156 (natural protein)
chain: T1 chain
The molecule B1 displayed a stoichiometry N of 2.
